From PubChem BioAssay AID2451 (National Center for Advancing Translational Sciences (NCATS), 2010)
Out of some 290,000 compounds screened, about 2,100 (0.72%) were called active. Another 4% or so got no clear call; they are omitted. The call rests on the fitted dose curve; in most records, active means well fitted inhibition curve with a large enough effect; inconclusive means small, poorly fitted or top-dose-only effect, or effect the other way; inactive means flat fitted curve, though single readings scatter. This is a selection; strong and weak results do not stand in their true shares. A structure can be active in one record and inactive in another.

Molecular target: Fructose-bisphosphate aldolase (Giardia intestinalis (strain ATCC 50803 / WB clone C6)) (UniProt A8B2U2)
UniProt A8B2U2, sequence (A8B2U2 whole entry, looked up): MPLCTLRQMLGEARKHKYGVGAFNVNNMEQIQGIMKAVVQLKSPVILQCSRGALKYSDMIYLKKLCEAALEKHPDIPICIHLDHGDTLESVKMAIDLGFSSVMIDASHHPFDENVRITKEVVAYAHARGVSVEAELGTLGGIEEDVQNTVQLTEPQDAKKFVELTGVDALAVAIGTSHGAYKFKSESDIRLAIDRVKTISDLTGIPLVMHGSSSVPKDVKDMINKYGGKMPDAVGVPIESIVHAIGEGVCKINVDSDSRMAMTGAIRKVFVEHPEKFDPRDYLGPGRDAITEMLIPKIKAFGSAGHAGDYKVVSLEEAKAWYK
Assay: qHTS Assay for Inhibitors of Fructose-1,6-bisphosphate Aldolase from Giardia Lamblia; further: nearly all actives have a fitted effect of over 55% in size
Details: purified Giardia FBPA; series mostly up to 59.6 µM; activity, negative = inhibition: at the top concentration
Excerpt: Assay Provider: Osnat Herzberg, University of Maryland
The objective of this project is to obtain compounds that inhibit Giardia lamblia growth. G. lamblia is a human pathogen which afflicts impoverished nations; it is the most common cause of outbreaks of diarrhea in the United States. During the course of our study of potential drug targets in Giardia, we have identified the Class II (Zn2+ functions in electrophilic catalysis) fructose-1,6-bisphosphate aldolase (FBPA) as an excellent candidate for drug targeting. FBPA is a key glycolytic pathway enzyme, essential for G. lamblia survival. The human FBPA belongs to the Class I aldolases, which have a different substrate binding site structure and a radically different catalytic mechanism (employing a lysine-Schiff base intermediate). Therefore, affinity-based or mechanism-based inhibitors of the Giardia FBPA are expected not to interfere with the catalytic function of the human FBPA.
A glyceraldehyde-3-phosphate dehydrogenase/triose phosphate isomerase/NAD/arsenate coupled assay was adapted to the 1536-well HTP format for use in the primary screen. This was done by coupling it to a diaphorase/resazurin/resorufin reaction that can be monitored by fluorescence (excitation, 544 nm; emission, 590 nm). Compounds identified in this screen will be further evaluated by coupling the glycerol-3-phosphate/triose phosphate isomerase/NADH assay to a phenazine methosulfate/tetranitroblue tetrazolium color reaction. False positives due to the dehydrogenases and diaphorase inhibition will be eliminated, and selectivity assay will triage inhibitors of mammalian triose phosphate isomerase and the Class I FBPA. G. lamblia FBPA inhibitors identified by the in vitro analyses will be examined for growth inhibition of Giardia trophozoites, and for cytotoxicity in human cells.
Step,Parameter,Value,Description
1,Enzyme reagent,2 uL,40 nM FBPA
2,Compound,23 nL,3.68 nM-57.5 uM final concentration
3,Time,10 min,RT Incubation
4,Substrate/detection Reagent,2 uL,Substrate + enzyme coupling system + AmpLite Red kit
5,Time,20 min,RT Incubation
6,Detector,525 nm/598 nm (Fluorescence),ViewLux Fluorescence Read (Read 1)
1,Medium-binding black solid-bottom Kalypsys plates. FRD or Kalypsys dispenser, 2 uL of FBPA enzyme. Bottle kept at 4C.
2,Compound Library (10 mM ,1:5 dilution). Pin-transferred for a [final] range of 3.68 nM-57.5 uM.
4,FRD or Kalypsys dispenser, 2 uL of reaction mixture. Bottle kept at 4C and covered in foil to protect from light.
6,ViewLux Protocol 1194; Excitation filter wheel A (525/20 Pol; BODIPY TMR FP), Emission filter wheel B (598/25 S; BODIPY TMR FP S).
Keywords: Fructose-bisphosphate aldolase, FBPA , Giardia lamblia , Giardia, HTS, Inhibitors
On the % scale 0 is the no-effect control and ±100 the full control effect; potency means the concentration at half of the fitted maximal effect.

| Structure (SMILES) | Potency | activity, negative = inhibition |
| --- | --- | --- |
| Nc1nc2ncc(CNc3ccc(C(=O)NC(CCC(=O)O)C(=O)O)cc3)nc2c(=O)[nH]1 (stereo unspecified) | inactive |  |
| S=C(Nc1ccccc1)c1ccccn1 |  | inactive: -0.34% |
| CN(C)c1ccc(O)c2c1C[C@@H]1C[C@H]3C(N(C)C)C(=O)C(C(N)=O)=C(O)[C@@]3(O)C(=O)C1=C2O (stereo partly specified) |  | inactive: -29.6% |
| O=C1NC(=O)C(c2ccccc2)(c2ccccc2)N1 | inactive |  |
| CN[C@H](C)[C@H](O)c1ccccc1 |  | inactive: -6.28% |
| Cc1ccc(/C=C2\C(=O)ON=C2c2ccccc2)o1 |  | inactive: -0.53% |
| COc1ccc(C2=CC3=C(Br)C(=O)C(C)(OC(=O)c4ccco4)C(=O)C3=CO2)cc1 (stereo unspecified) |  | inactive: -9.69% |
| C=CCN1C=C2C(=O)C(C)(OC(=O)CC)C(=O)C=C2C=C1CCCC (stereo unspecified) |  | inactive: -29.3% [at 12.9 µM] |
| Cc1ccc(-n2c(=S)[nH]c3[nH]ncc3c2=O)cc1 | active: 15.8 µM |  |
| N[C@H](C(=O)N[C@@H]1C(=O)N2C(C(=O)O)=C(Cl)CS[C@@H]12)c1ccccc1 |  | inactive: -19.8% [at 21.7 µM] |
| CC(C)c1ccc2c(c1)c(SC(C)(C)C)c(CC(C)(C)C(=O)O)n2Cc1ccc(Cl)cc1 | inactive |  |
| CCO[C@@H]1OC(C(=O)NCc2ccccc2)=C[C@H](c2ccc(Br)cc2)[C@H]1CCCO |  | inactive: 6.5% |
| CC(C)[C@@]1(NC(=O)[C@@H]2C[C@H]3c4cccc5[nH]cc(c45)C[C@@H]3N(C)C2)O[C@]2(O)[C@H]3CCCN3C(=O)[C@H](Cc3ccccc3)N2C1=O |  | inactive: -1.86% [at 21.7 µM] |
| COc1cc(NC(C)CCCN)c2ncccc2c1 (stereo unspecified) |  | inactive: -19.4% |
| O=C(Nc1cc(C(=O)Nc2ccc(S(=O)(=O)O)cc2S(=O)(=O)O)cc(C(=O)Nc2ccc(S(=O)(=O)O)cc2S(=O)(=O)O)c1)Nc1cc(C(=O)Nc2ccc(S(=O)(=O)O)cc2S(=O)(=O)O)cc(C(=O)Nc2ccc(S(=O)(=O)O)cc2S(=O)(=O)O)c1 |  | inactive: -9.93% |
| Cc1ccc(S(=O)(=O)NC(=O)NN2CCCCCC2)cc1 | inactive |  |
| CO/N=C(/C(=O)NC1C(=O)N2C(C(=O)O)=C(CSc3nc(=O)c(O)nn3C)CSC12)c1csc(N)n1 (stereo unspecified) |  | inactive: -24.5% |
| CN1CCOC(c2ccccc2)c2ccccc2C1 (stereo unspecified) |  | inactive: -11.1% |
| CCC1(C)Cc2c(C#N)c(N)sc(=S)c2CO1 (stereo unspecified) | active: 2.23 µM |  |
| CCCCCCCCCCCC1=C(O)C(=O)C=C(O)C1=O | inactive |  |
| Cc1cccc(CN2CCN([C@@H](c3ccccc3)c3ccc(Cl)cc3)CC2)c1 |  | inactive: -9.67% [at 21.7 µM] |
| CCc1oc2ccccc2c1C(=O)c1cc(Br)c(O)c(Br)c1 | inactive |  |
| Cc1c(N2C(=O)/C(=C3\C(=O)N(CC(=O)O)c4ccccc43)SC2=S)c(=O)n(-c2ccccc2)n1C | active: 9.98 µM |  |

| Structure (SMILES) | Potency | activity, negative = inhibition |
| --- | --- | --- |
| CC1(OC(=O)C2CCCC2)C(=O)C=C2C=C(c3ccsc3)OC=C2C1=O (stereo unspecified) |  | inactive: -19.7% |
| CCn1c(O)c(C(c2ccccn2)c2c(O)n(CC)c(=S)[nH]c2=O)c(=O)[nH]c1=S | active: 17.7 µM |  |
| CC[C@H](C)C(=O)O[C@@H]1C[C@H](C)C=C2C=C[C@H](C)[C@@H](CC[C@H]3C[C@@H](O)CC(=O)O3)[C@H]21 |  | inactive: -1.18% [at 21.7 µM] |
| COc1cc2c(cc1OC)-c1c(OC)c(OC)cc3ccnc(c13)C2=O |  | inactive: -29.2% |
| CC(C)C1CCC(C(=O)N[C@H](Cc2ccccc2)C(=O)O)CC1 (stereo partly specified) |  | inactive: 29.4% |
| C/C=C1/CN2CC[C@]34C(=C(C=O)[C@H]1C[C@@H]23)Nc1ccccc14 |  | inactive: 2.42% |
| COc1cc(O)c(C(CC(=O)N2CCCCC2)c2ccc3c(c2)OCO3)c(OC)c1 (stereo unspecified) |  | inactive: -28.4% |
| O=[N+]([O-])c1ccc(SCCc2ccncc2)cc1 |  | inactive: 3.43% |
| O=C1/C(=C/c2cc3c(cc2Cl)OCO3)N2CCC1CC2 |  | inactive: -9.27% |
| CC(C)NCC(O)c1cc(O)cc(O)c1 (stereo unspecified) | inactive |  |
| CO/N=C(\C(=O)N[C@@H]1C(=O)N2C(C(=O)O)=C(CSc3nc(=O)c(O)nn3C)CSC12)c1csc(N)n1 (stereo partly specified) |  | inactive: -0.662% |
| CCOc1ccc(N/C(C)=C\C(=O)c2ccc3c(c2)OCCO3)cc1 |  | inactive: 12.6% |
| N[C@@H](COP(=O)(O)O)C(=O)O |  | inactive: 2.04% |
| COC(=O)CCCC1=CC2=CC(=O)C(C)(OC(=O)c3cccs3)C(=O)C2=CN1c1cccc(C#N)c1 (stereo unspecified) |  | inactive: -10.8% [at 12.9 µM] |
| NCCc1ccc(O)c(O)c1 | inactive |  |
| COC(=O)CCCC1=CC2=CC(=O)C(C)(OC(=O)CCc3ccccc3)C(=O)C2=CO1 (stereo unspecified) | inactive |  |
| O=[N+]([O-])c1cc(F)c2cccnc2c1O | active: 19.9 µM |  |
| COC(=O)[C@H]1[C@H]2C[C@H]3c4[nH]c5ccccc5c4CCN3C[C@H]2CC[C@@H]1O |  | inactive: -2.99% |
| NCC(O)c1ccc(O)cc1 (stereo unspecified) | inactive |  |
| CC1(C)CC(=O)C(/C=N/n2cnc3ccccc3c2=O)=C(O)C1 | active: 17.7 µM |  |
| CNc1ccc2oc(C[C@H]3O[C@]4(CC[C@H]3C)O[C@H]([C@H](C)C(=O)c3ccc[nH]3)[C@H](C)C[C@H]4C)nc2c1C(=O)O |  | inactive: -8.39% |
| Nc1ncnc2nc[nH]c12 |  | inactive: 0.532% |
| CC(=O)C[C@@H](c1ccccc1)c1c(O)c2ccccc2oc1=O |  | inactive: 20.8% |
